From PMC6919601, “Identification of Plasmodium dipeptidyl aminopeptidase allosteric inhibitors by high throughput screening” (PLoS ONE, 2019)
About 230 (0.21%) of roughly 110,000 compounds showed an effect of 50% or more. The list shows a part of the results.

Biological target: DPAP1 (Plasmodium falciparum, UniProt Q8IIJ9)
Experiment: primary screen, percent inhibition; read by cleavage of a fluorogenic dipeptide substrate; higher = more effect of the substance
Parameters: species or system P. falciparum D10 trophozoite lysates; single well
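Further: 30 min substrate incubation versus DMSO and 10 µM JCP410 controls.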

Sequence of DPAP1 (Q8IIJ9 whole entry, looked up): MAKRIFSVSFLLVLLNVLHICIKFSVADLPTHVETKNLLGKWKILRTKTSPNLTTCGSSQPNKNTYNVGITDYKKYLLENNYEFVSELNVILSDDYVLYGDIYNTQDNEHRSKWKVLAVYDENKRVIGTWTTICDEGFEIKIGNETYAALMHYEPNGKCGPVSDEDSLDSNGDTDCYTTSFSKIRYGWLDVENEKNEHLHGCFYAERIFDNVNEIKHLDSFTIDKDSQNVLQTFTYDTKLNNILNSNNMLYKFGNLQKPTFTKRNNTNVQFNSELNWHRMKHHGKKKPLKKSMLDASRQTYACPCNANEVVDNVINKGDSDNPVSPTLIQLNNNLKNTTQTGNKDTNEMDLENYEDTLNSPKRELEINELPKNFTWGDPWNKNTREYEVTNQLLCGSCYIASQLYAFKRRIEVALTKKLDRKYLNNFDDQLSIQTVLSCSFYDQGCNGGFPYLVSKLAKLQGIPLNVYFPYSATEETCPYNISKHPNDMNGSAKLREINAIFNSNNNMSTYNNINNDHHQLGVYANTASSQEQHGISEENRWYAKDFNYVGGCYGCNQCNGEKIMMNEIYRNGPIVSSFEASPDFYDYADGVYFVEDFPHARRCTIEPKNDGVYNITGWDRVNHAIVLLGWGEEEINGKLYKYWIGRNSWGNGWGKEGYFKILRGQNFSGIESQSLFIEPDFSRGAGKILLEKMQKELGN

First: COCCCNC(=O)C1CCN(c2nn3c(=O)cc(C)nc3s2)CC1
Second: COc1ccc(-c2c(C)nn3c(N4CCC(C(=O)N5CCN(C)CC5)CC4)cc(C)nc23)cc1OC
The “% Inhibition @ 10 uM” value of the first is lower: -3.79% for the first, -1.89% for the second.

Going from `CCN(CC)C(=O)c1ccc(CS(=O)(=O)c2ccccc2C)o1` to `CCN(CC)S(=O)(=O)c1ccc(NC(=O)c2ccccc2C)cc1`, the “% Inhibition @ 10 uM” value falls from -4.96% to -7.46%.

Compared with `Cc1ccc(C(C)C)c(OCC(O)CN2CCN(Cc3ccccc3)CC2)c1` (stereo not shown), `CCCC(=O)C1CCN(Cc2ccccc2)CC1` is lower in “% Inhibition @ 10 uM” value: 4.79% for the first, -5.23% for the second.

First: C=CCOc1cccc(C2C(C(=O)c3ccc4c(c3)OCCO4)=C(O)C(=O)N2Cc2ccco2)c1 (stereo not shown)
Second: COc1ccc(S(=O)(=O)N(CC(=O)Nc2ccc3c(c2)OCO3)c2ccc(Cl)cc2)cc1
The “% Inhibition @ 10 uM” value of the first is lower: -2.74% for the first, 2.95% for the second.

Compared with `N#CC1=C(N)N(c2nc[nH]n2)C2=C(C(=O)CCC2)C1c1cccc(Cl)c1` (stereo not shown), `O=C1CCCC2=C1C(c1ccc(O)cc1)Nc1ccc3ncccc3c12` (stereo not shown) is higher in “% Inhibition @ 10 uM” value: -4.6% for the first, 0.937% for the second.

Going from `Cc1ccc2c(cnn2C(=O)CCC(=O)N2CCN(C)CC2)c1` to `Cc1cc(C)nc(N2CCN(S(=O)(=O)c3ccc(F)cc3)CC2)n1`, the “% Inhibition @ 10 uM” value falls from 5.39% to -6.74%.

First: Cc1occc(=O)c1OC(=O)c1ccc(Cl)cc1
Second: COc1ccc(C(=O)Nc2cc(Cl)ccc2Cl)cc1[N+](=O)[O-]
The “% Inhibition @ 10 uM” value of the first is lower: -1.52% for the first, 0.467% for the second.

Going from `CSc1ccc(C2c3c(oc4cc(C)cc(C)c4c3=O)C(=O)N2CCCOC(C)C)cc1` (stereo not shown) to `CC(C)OCCCNS(=O)(=O)c1ccc2nc(O)ccc2c1`, the “% Inhibition @ 10 uM” value falls from 4.83% to 1.92%.

Compared with `CN1CC2(C)CN(C(=O)c3ccccc3Cl)CC(C)(C1)C2`, `CC1(O)N(CCc2c[nH]c3ccccc23)C(=O)OC12CCCCC2` (stereo not shown) is lower in “% Inhibition @ 10 uM” value: -0.661% for the first, -2.19% for the second.

Going from `CCCN1Cc2cccc(C(=O)NC3CCCC3)c2C1=O` to `CCN1CCCC1CNC(=O)c1nn(C)c2c1CS(=O)(=O)c1ccccc1-2` (stereo not shown), the “% Inhibition @ 10 uM” value rises from 1.23% to 2.03%.

First: COc1ccc(CNC(=O)CCCN2C(=O)CSc3ncccc32)cc1
Second: COc1ccc(N2CC(C(=O)NC(C)C)CC2=O)cc1 (stereo not shown)
The “% Inhibition @ 10 uM” value of the first is lower: -4.15% for the first, 1.62% for the second.

Going from `CS(=O)(=O)C1=NN2C(=N)/C(=C\c3ccco3)C(=O)N=C2S1` to `COc1ccc(NC(=O)CN(c2cc(C)ccc2OC)S(C)(=O)=O)cc1Cl`, the “% Inhibition @ 10 uM” value falls from -7.21% to -16%.

Compared with `O=C(c1ccc(Cl)cc1)C(CN1CCOCC1)c1ccccc1` (stereo not shown), `O=C(c1ccc(F)cc1)N1CCC(Cc2ccccc2)CC1` is lower in “% Inhibition @ 10 uM” value: -0.233% for the first, -3.44% for the second.

Compared with `CCN(Cc1ccccc1)C(=O)CSc1nc2cn(CC)nc2c(=O)n1CCc1ccccc1`, `O=S(=O)(NCCc1nnc2ccc(SCc3cccc(F)c3)nn12)c1ccccc1` is higher in “% Inhibition @ 10 uM” value: -4.55% for the first, 2.75% for the second.

Going from `CCn1c(C(=O)N2CCC(Cc3ccccc3)CC2)cc2sccc21` to `COc1ccc(C(=O)N2CCN(C(c3ccccc3)c3ccccc3)CC2)cc1`, the “% Inhibition @ 10 uM” value rises from -1.37% to 1.7%.

Going from `O=C1CNC(=O)/C1=C/c1ccc(Br)cc1` to `Cc1ccc(N2C(=O)CSC23C(=O)Nc2ccccc23)cc1Cl` (stereo not shown), the “% Inhibition @ 10 uM” value rises from -0.424% to 4.32%.

First: Cc1nn(-c2ccc(F)cc2)c(O)c1/C=N/c1ccccc1C(=O)O
Second: Cc1cc(C(=O)O)c(NC(=O)c2ccccc2Br)s1
The “% Inhibition @ 10 uM” value of the first is lower: -4.03% for the first, -2.6% for the second.

First: Cc1ccc(-c2nc(CSc3nc4ccncc4[nH]3)c(C)o2)cc1
Second: Cc1ccc(C(O)CSc2nccn2C)cc1 (stereo not shown)
The “% Inhibition @ 10 uM” value of the first is lower: -2.59% for the first, 0.401% for the second.

Compared with `Cc1ccc(C(=O)N(Cc2nc(-c3ccccc3)no2)C(C)C)cc1C`, `CC(C)N(Cc1nc(-c2ccccc2)no1)C(=O)CCC1CCCC1` is lower in “% Inhibition @ 10 uM” value: -1.24% for the first, -4.03% for the second.

First: COc1ccc(-c2cc3nc(C)c(CCC(=O)N4CC(C)CC(C)C4)c(C)n3n2)c(OC)c1 (stereo not shown)
Second: CCOc1ccc(CCNC(=O)C2CCCN(c3ncnc4onc(C)c34)C2)cc1 (stereo not shown)
The “% Inhibition @ 10 uM” value of the first is higher: -0.685% for the first, -3% for the second.

First: C=CCOc1ccc2c(OC)c3ccoc3nc2c1OC
Second: COc1ccc(CCNCc2ccc(C)s2)cc1OC
The “% Inhibition @ 10 uM” value of the first is lower: -0.687% for the first, 2.48% for the second.

First: COc1ccc(S(=O)(=O)N(CC(=O)N2CCc3ccccc3C2)c2cccc(Cl)c2)cc1
Second: C=CCNC(=O)c1ccccc1NC(=O)CN(c1cccc(Cl)c1)S(C)(=O)=O
The “% Inhibition @ 10 uM” value of the first is lower: -11% for the first, 6.01% for the second.

Compared with `COc1ccc(C2N[C@H](C(=O)O)CS2)cc1OC` (stereo partly shown), `Cc1nn(Cc2cccc(C(=O)O)c2)c(C)c1Br` is higher in “% Inhibition @ 10 uM” value: -1.59% for the first, 3.8% for the second.

First: O=C(CCN1C(=O)c2ccccc2S1(=O)=O)Nc1ccc(Cl)cc1
Second: CC(C)c1ccc(NC(=O)CN(c2ccc(F)cc2)S(C)(=O)=O)cc1
The “% Inhibition @ 10 uM” value of the first is lower: -3.09% for the first, 0.324% for the second.

Compared with `CCCCNC(=O)c1cc2ccccc2s1`, `CCOC(=O)C1=C(N)Oc2c(oc(CO)cc2=O)C1c1ccccc1C(F)(F)F` (stereo not shown) is higher in “% Inhibition @ 10 uM” value: -2.36% for the first, 3.39% for the second.

Going from `CCOC(=O)CSc1nnc(Nc2ccc(Cl)cc2)n1-c1ccc(Cl)cc1` to `CCc1c(C)sc(NC(=O)Cc2ccc(Cl)cc2)c1C(N)=O`, the “% Inhibition @ 10 uM” value falls from -0.736% to -1.89%.

Going from `CCOc1ccccc1-c1nc(-c2ccc(C)nc2OC)no1` to `Cc1n[nH]c(C)c1CCCCCOc1ccccc1C(C)(C)C`, the “% Inhibition @ 10 uM” value rises from -3.36% to -1.64%.

Going from `CCOc1ccc(C2C3=C(O)CC(C)(C)CC3=Nc3ncnn32)cc1` (stereo not shown) to `CCO/C(O)=C1\C(C)=NC2=C(C(=O)CCC2)C1c1ccc(C)s1` (stereo not shown), the “% Inhibition @ 10 uM” value falls from -0.828% to -3.14%.

First: Cc1nnc(N2CCOCC2)c2c1nnn2Cc1ccccc1Cl
Second: CC(C)(C)C(/C=C\c1ccc(Cl)cc1Cl)n1nnnc1C1(Nc2ccccc2)CCCC1 (stereo not shown)
The “% Inhibition @ 10 uM” value of the first is higher: 3.27% for the first, -5.38% for the second.

First: Cc1cc(C)c(C)c(S(=O)(=O)N2CCC(N3CCCCC3)CC2)c1C
Second: Cc1ccc(S(=O)(=O)NC2CCC(C(=O)O)CC2)cc1 (stereo not shown)
The “% Inhibition @ 10 uM” value of the first is lower: -1.71% for the first, -0.597% for the second.

First: C/C=C(\C)CN1CCC(C(N)=O)CC1
Second: CCCc1nc(N)nc2c1C(=O)CC(C)(C)C2
The “% Inhibition @ 10 uM” value of the first is lower: -5.11% for the first, 0.774% for the second.

Going from `Cc1cccc(NC(=O)c2cc(F)c(Cl)nc2Cl)c1C` to `CCCN(CCO)Cc1ccc(F)cc1F`, the “% Inhibition @ 10 uM” value rises from 0.907% to 2.7%.
